# The supplement of paper PMC11417369
# ± gives the standard deviation of the averaged measurements. The list shows a part of the results.
# System: PfAP2-LT AP2 domain (GST-tagged)
# Assay: gcPBM binding intensity (ln(normalized median fluorescence intensity)); higher = stronger DNA binding
# Method in brief: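 An Agilent 4 × 180k array carrying primer-extended double-stranded 36-bp intergenic genomic probes and negative controls received GST-tagged P. falciparum DNA-binding domains expressed in E. coli, about 25 μg on average, for 1 h. The binding buffer contained 1× PBS, 1% milk, 0.2 mg/ml BSA, 0.5% salmon testes DNA and 0.03% Triton X-100. Binding intensity is the top Masliner-normalised natural-log median intensity across replicate spots of either probe orientation, read after Alexa488 anti-GST antibody staining and a 488 nm scan.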
row,Sequence,gcPBM binding intensity (ln)
1,ATATATATATATATATATATATATATATTTATATAT [GTGCAC_negctrl_site180],9.39 ± 0.042
2,CTTTGTAGTTGGTCCACACACATATATGGAAGAATA [CACACA_site1280],9.03 ± 0.44
3,TAATAATAGAGACACACACACATTTTTAATAATACA [CACACA_site6691],9.59 ± 0.25
4,CACACCATATAATATATATATATGTATATATTTATA [CACACA_negctrl_site397],8.76 ± 0.42
5,TTTTTTTTTTTTTTGTCACACACCTTCATAAGAAAA [CACACA_site1166],8.65 ± 0.4
6,ACACAAAAATAAAAATGTACAAATTAAAAAAAATGA [XGTACX_site2083],9.12 ± 0.54
7,TAAAAGGAACAAAATTGTACTTAAAAGACAAAGTTA [XGTACX_site7661],8.63 ± 0.52
8,ATATATATTAATAGTTGTACTATTATAATATTACAA [XGTACX_site1213],8.47 ± 0.34
9,ATCCTGAACAGAATATGTATAAACAGAAGGAAACAA [CACACA_negctrl_site1805],8.98 ± 0.49
10,TTTGTTCTATGGAGTTTAAAATGTAATATATATTAA [GTGCAC_negctrl_site151],8.22 ± 0.45
11,TATAAGCAAAGACACACACACATATAAATATAAATA [CACACA_site7740],9.81 ± 0.35
12,TATAAAATATATATCTGTACGTATTTTATTTTTTAT [XGTACX_site6257],8.7 ± 0.44
13,TACAAAATATTTTACACACACATATAAATACCTATA [CACACA_site7272],9.35 ± 0.22
14,TATATATATATATGAGTGCATATGTGTAATATAAAA,9.22 ± 0.18
15,TTATGTTCTTAATGCACACTTATAAGTATCTTATAA [CACACA_site1394],8.81 ± 0.47
16,TATATAATTATTTGATGTACACTACAATGTATTTGT [XGTACX_site7991],8.99 ± 0.45
17,AATACAATATAAAGGTGTACATATATATATATATAT [XGTACX_site68],9.87 ± 0.2
18,ATGTAGATAGATAGGGTGCTAAAAATAAGATTTATA [GTGCAC_site9602],8.74 ± 0.68
19,AAAAAAAAAAAAAAAACACACACAACACCCATACCT [CACACA_site9208],9.92 ± 0.14

row,Sequence,gcPBM binding intensity (ln)
1,ACATGATAAATAGTCACACATAAATATAATATATAT [CACACA_site5207],8.95 ± 0.37
2,ATTATGGATACATAAACACACATATATATAAAAAAA [CACACA_site4303],9.04 ± 0.43
3,ATAATACACAAGCACACACACACACGGATATTTATA [CACACA_site6714],10.4 ± 0.23
4,ATAATTATATTTTATTCACACATCGTTATATAGTAA [CACACA_site4743],8.74 ± 0.42
5,AATTATTCATAAAATGCATGTACATGGTTTAATATT [TGCATGCA_site87],8.91 ± 0.53
6,TCGTAAACTTTATGCACACACATATACATATTTCAT [CACACA_site739],9.53 ± 0.4
7,ATACATGTTTTATGTGCACACAAAGTTGTTATGAGG [CACACA_site4032],9.87 ± 0.31
8,TTATAATTTAATAAATGTACATAAATAATATACATA [XGTACX_site7271],8.43 ± 0.45
9,AACACAATAAAAATTAAAAATGTTAAGTAAATATAA [GTGCAC_negctrl_site60],8.68 ± 0.52
10,AGACAATATCTTATTTGTACATATGTATTCCTCATA [XGTACX_site5757],8.93 ± 0.43
11,AAAAAAAAAAAAAAAACACACATATAGATTATTGTA [CACACA_site7797],8.74 ± 0.35
12,TTTTAATTTATCGACACACGCATGAATAGAAATTAG [CACACA_site3361],8.72 ± 0.42
13,TATTTTTATTTTCCTTCACACATTTTTTATATTTTT [CACACA_site5830],8.92 ± 0.49
14,TTATAAATTTAAAAAGTGCATAATAATAACAAAAAG,8.68 ± 0.45
15,TATGTATATTTAAATGCATGTGATTATTTTTGACTT [TGCATGCA_site568],8.66 ± 0.38
16,ACTTTTTTTTTTTTTTTAGATTACATAAATATAAAT [CACACA_negctrl_site139],8.47 ± 0.5
17,TGCCATATATATATTAAATACATAATAATGAGCCTA [GTGCAC_negctrl_site10],8.62 ± 0.47
18,AGTCATAAATTTATTTGTACATATAATATATATATA [XGTACX_site8489],8.7 ± 0.3
19,AAAATATATAATTTTTAACACACAAAAAAAAAAAAA [CACACA_site9192],8.63 ± 0.42

row,Sequence,gcPBM binding intensity (ln)
1,ATAAACAAAAAAAAAAAATATATCAATATATATATA [CACACA_negctrl_site299],8.62 ± 0.49
2,TAAAAATATAAAAAGTGTACAATATATAAATTAATA [XGTACX_site1606],8.84 ± 0.44
3,ATATTAAAAAAATATGCATGCAAATATTATTTTGTA [TGCATGCA_site191],8.71 ± 0.33
4,AATCAAATTTTCAAGTCGCACCAAACAAAAAAATGA [CACACA_negctrl_site1397],8.84 ± 0.52
5,TATTTAATTAATATAATATTAAACGGAAAAGATAAA [TGCATGCA_negctrl_site148],8.38 ± 0.54
6,ATGTTATATTTTTTTATACACACTGGGATATATAAA [CACACA_site6244],8.74 ± 0.39
7,TTCATTGTGTTAACGGTGCATATATTTTTTCACCGT [GTGCAC_site9464],9.03 ± 0.47
8,CATTAATTTAATAAATGTACATAAAATATATATTAT [XGTACX_site8085],8.58 ± 0.37
9,TAAAATTTACAACACTGTACTTGAATTTATCTTTAA [XGTACX_site241],8.56 ± 0.53
10,GCAGTATGCGATCAGTGTACGAGTTATTTTATAAAA [XGTACX_site4764],8.61 ± 0.54
11,AAATGCGTATATAACGCATGTATAAGAACATTTTTT [TGCATGCA_site225],8.83 ± 0.44
12,TTATAATCTATACATATATATGTATGTATGTCTCAA [CACACA_negctrl_site1702],8.9 ± 0.47
13,ACATCATTTTTATGTACACACACATATACGTTGAAT [CACACA_site5095],9.55 ± 0.26
14,GAAGTATTATTAAAGCTGCACTTTTCTAAAATAAAC [GTGCAC_site9429],8.46 ± 0.5
15,ATATTACAAATATAATGTACAAAATATAAATATGCA [XGTACX_site8106],8.89 ± 0.37
16,GTCCTTACTAATTAATTTTAGGCCATATAGTTTGTC [XGTACX_negctrl_site199],8.93 ± 0.49
17,CTAATATATGTATGCACACACAATATATACATATTT [CACACA_site3360],9.37 ± 0.37
18,GTTATACACATATATACACACATATGTAAATATATA [CACACA_site9080],9.15 ± 0.35
